In article PMC9911399, “Two distinct binding modes provide the RNA-binding protein RbFox with extraordinary sequence specificity”:
Positions count from the first letter of the chain named. This is one part of the list.

T1: RBFOX1 RRM (Homo sapiens, UniProt Q9NWB1 109-208)
T1 sequence: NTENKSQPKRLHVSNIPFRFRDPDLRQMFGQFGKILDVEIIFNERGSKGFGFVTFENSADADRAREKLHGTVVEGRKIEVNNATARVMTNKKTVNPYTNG

B1: GGUAUUA (DNA:RNA)
RNA: GGGAGACCGGAAUUCAGAUUGUCCGGUAUUAUUAAAUCCCGUCGUAGCCACCA
DNA 1: CAATCTGAATTCCGGTCTCCC
DNA 2: TGGTGGCTACGACGGGATT
B2: GUCCAGC (DNA:RNA)
RNA: B1 RNA with G26U, U27C, A28C, U29A, U30G, A31C
DNA 1: CAATCTGAATTCCGGTCTCCC
DNA 2: TGGTGGCTACGACGGGATT
B3: GGACUAG (DNA:RNA)
RNA: B1 RNA with U27A, A28C, U30A, A31G
DNA 1: CAATCTGAATTCCGGTCTCCC
DNA 2: TGGTGGCTACGACGGGATT
B4: GGUGGCG (DNA:RNA)
RNA: B1 RNA with A28G, U29G, U30C, A31G
DNA 1: CAATCTGAATTCCGGTCTCCC
DNA 2: TGGTGGCTACGACGGGATT
B5: UUCCAUU (DNA:RNA)
RNA: B1 RNA with G25U, G26U, U27C, A28C, U29A, A31U
DNA 1: CAATCTGAATTCCGGTCTCCC
DNA 2: TGGTGGCTACGACGGGATT
B6: UAUGGGA (DNA:RNA)
RNA: B1 RNA with G25U, G26A, A28G, U29G, U30G
DNA 1: CAATCTGAATTCCGGTCTCCC
DNA 2: TGGTGGCTACGACGGGATT
B7: CGGACAU (DNA:RNA)
RNA: B1 RNA with G25C, U27G, U29C, U30A, A31U
DNA 1: CAATCTGAATTCCGGTCTCCC
DNA 2: TGGTGGCTACGACGGGATT
B8: GAACUGU (DNA:RNA)
RNA: B1 RNA with G26A, U27A, A28C, U30G, A31U
DNA 1: CAATCTGAATTCCGGTCTCCC
DNA 2: TGGTGGCTACGACGGGATT
B9: UCAGCUG (DNA:RNA)
RNA: B1 RNA with G25U, G26C, U27A, A28G, U29C, A31G
DNA 1: CAATCTGAATTCCGGTCTCCC
DNA 2: TGGTGGCTACGACGGGATT
B10: UUUCCGU (DNA:RNA)
RNA: B1 RNA with G25U, G26U, A28C, U29C, U30G, A31U
DNA 1: CAATCTGAATTCCGGTCTCCC
DNA 2: TGGTGGCTACGACGGGATT
B11: AAUCCGU (DNA:RNA)
RNA: B1 RNA with G25A, G26A, A28C, U29C, U30G, A31U
DNA 1: CAATCTGAATTCCGGTCTCCC
DNA 2: TGGTGGCTACGACGGGATT
B12: UGCCCGC (DNA:RNA)
RNA: B1 RNA with G25U, U27C, A28C, U29C, U30G, A31C
DNA 1: CAATCTGAATTCCGGTCTCCC
DNA 2: TGGTGGCTACGACGGGATT
B13: CGUUACA (DNA:RNA)
RNA: B1 RNA with G25C, A28U, U29A, U30C
DNA 1: CAATCTGAATTCCGGTCTCCC
DNA 2: TGGTGGCTACGACGGGATT
B14: CAAAAUG (DNA:RNA)
RNA: B1 RNA with G25C, G26A, U27A, U29A, A31G
DNA 1: CAATCTGAATTCCGGTCTCCC
DNA 2: TGGTGGCTACGACGGGATT
B15: GCUGUCG (DNA:RNA)
RNA: B1 RNA with G26C, A28G, U30C, A31G
DNA 1: CAATCTGAATTCCGGTCTCCC
DNA 2: TGGTGGCTACGACGGGATT
B16: ACCCUCA (DNA:RNA)
RNA: B1 RNA with G25A, G26C, U27C, A28C, U30C
DNA 1: CAATCTGAATTCCGGTCTCCC
DNA 2: TGGTGGCTACGACGGGATT
B17: AGGUCUA (DNA:RNA)
RNA: B1 RNA with G25A, U27G, A28U, U29C
DNA 1: CAATCTGAATTCCGGTCTCCC
DNA 2: TGGTGGCTACGACGGGATT
B18: GUUUUUU (DNA:RNA)
RNA: B1 RNA with G26U, A28U, A31U
DNA 1: CAATCTGAATTCCGGTCTCCC
DNA 2: TGGTGGCTACGACGGGATT
B19: CCUGUGU (DNA:RNA)
RNA: B1 RNA with G25C, G26C, A28G, U30G, A31U
DNA 1: CAATCTGAATTCCGGTCTCCC
DNA 2: TGGTGGCTACGACGGGATT
B20: CCUCACG (DNA:RNA)
RNA: B1 RNA with G25C, G26C, A28C, U29A, U30C, A31G
DNA 1: CAATCTGAATTCCGGTCTCCC
DNA 2: TGGTGGCTACGACGGGATT
B21: GCCGUUG (DNA:RNA)
RNA: B1 RNA with G26C, U27C, A28G, A31G
DNA 1: CAATCTGAATTCCGGTCTCCC
DNA 2: TGGTGGCTACGACGGGATT
B22: UAGCGGA (DNA:RNA)
RNA: B1 RNA with G25U, G26A, U27G, A28C, U29G, U30G
DNA 1: CAATCTGAATTCCGGTCTCCC
DNA 2: TGGTGGCTACGACGGGATT
B23: AUGAUAA (DNA:RNA)
RNA: B1 RNA with G25A, G26U, U27G, U30A
DNA 1: CAATCTGAATTCCGGTCTCCC
DNA 2: TGGTGGCTACGACGGGATT
B24: CCGAGCA (DNA:RNA)
RNA: B1 RNA with G25C, G26C, U27G, U29G, U30C
DNA 1: CAATCTGAATTCCGGTCTCCC
DNA 2: TGGTGGCTACGACGGGATT
B25: CAGUCUG (DNA:RNA)
RNA: B1 RNA with G25C, G26A, U27G, A28U, U29C, A31G
DNA 1: CAATCTGAATTCCGGTCTCCC
DNA 2: TGGTGGCTACGACGGGATT
B26: AGGCUAA (DNA:RNA)
RNA: B1 RNA with G25A, U27G, A28C, U30A
DNA 1: CAATCTGAATTCCGGTCTCCC
DNA 2: TGGTGGCTACGACGGGATT
B27: AUCUCCU (DNA:RNA)
RNA: GGGAGACCGGAAUUCAGAUUGUCCAUCUCCUUUAAAUCCCGUCGUAGCCACCA
DNA 1: CAATCTGAATTCCGGTCTCCC
DNA 2: TGGTGGCTACGACGGGATT
B28: GGAGACU (DNA:RNA)
RNA: B27 RNA with A25G, U26G, C27A, U28G, C29A
DNA 1: CAATCTGAATTCCGGTCTCCC
DNA 2: TGGTGGCTACGACGGGATT
B29: UAGCUGA (DNA:RNA)
RNA: B1 RNA with G25U, G26A, U27G, A28C, U30G
DNA 1: CAATCTGAATTCCGGTCTCCC
DNA 2: TGGTGGCTACGACGGGATT
B30: GAGUUUU (DNA:RNA)
RNA: B1 RNA with G26A, U27G, A28U, A31U
DNA 1: CAATCTGAATTCCGGTCTCCC
DNA 2: TGGTGGCTACGACGGGATT
B31: AUCGAAG (DNA:RNA)
RNA: B27 RNA with U28G, C29A, C30A, U31G
DNA 1: CAATCTGAATTCCGGTCTCCC
DNA 2: TGGTGGCTACGACGGGATT

What follows are binders tested against T1, RBFOX1 RRM (assay: EMSA; HiTS-Eq, 1 nM pool, 10 min; buffer printed only for the single-RNA assays: 10 mM Tris pH 7.5, 150 mM NaCl, 3.4 mM EDTA, 0.001% NP-40, 30 C). Details: tags: His6 N-terminal (pET28a); label: 5' 32P.
Method in brief: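 These values rest on relative association constants, computed from read-count changes of each RNA species versus the control reaction and normalised to the cognate motif. Reads came from free RNA recovered by 8% native PAGE after purified RbFox RRM (wild type or mutant) at increasing concentrations was equilibrated for 10 min in 50 µL with 1 nM of a 5′-radiolabelled pool with 7 randomized nucleotides and DNA-annealed flanks.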
In the case of B1, the binding signal is reported as 0.00455 KA relative to UGCAUGU.
With B2 the binding signal was 0.0098 KA relative to UGCAUGU.
With B3 the binding signal was 0.00981 KA relative to UGCAUGU.
In the case of B4, the binding signal is reported as 0.0174 KA relative to UGCAUGU.
B5 was tested, and the binding signal was 0.00293 KA relative to UGCAUGU.
With B6 the binding signal was 0.00251 KA relative to UGCAUGU.
For B7, the binding signal was 0.019 KA relative to UGCAUGU.
In the case of B8, the binding signal is reported as 0.0163 KA relative to UGCAUGU.
With B9 the binding signal was 0.0139 KA relative to UGCAUGU.
For B10, the binding signal was 0.00961 KA relative to UGCAUGU.
In the case of B11, the binding signal is reported as 0.00022 KA relative to UGCAUGU.
With B12 the binding signal was 0.0206 KA relative to UGCAUGU.
With B13 the binding signal was 0.00337 KA relative to UGCAUGU.
For B14, the binding signal was 0.00232 KA relative to UGCAUGU.
For B15, the binding signal was 0.0197 KA relative to UGCAUGU.
For B16, the binding signal was 0.00311 KA relative to UGCAUGU.
With B17 the binding signal was 0.00527 KA relative to UGCAUGU.
B18 was tested, and the binding signal was 0.0203 KA relative to UGCAUGU.
With B19 the binding signal was 0.0181 KA relative to UGCAUGU.
For B20, the binding signal was 0.00492 KA relative to UGCAUGU.
With B21 the binding signal was 0.0204 KA relative to UGCAUGU.
In the case of B22, the binding signal is reported as 0.00383 KA relative to UGCAUGU.
For B23, the binding signal was 0.00224 KA relative to UGCAUGU.
For B24, the binding signal was 0.0163 KA relative to UGCAUGU.
With B25 the binding signal was 0.0134 KA relative to UGCAUGU.
For B26, the binding signal was 0.00874 KA relative to UGCAUGU.
B27 was tested, and the binding signal was 0.00558 KA relative to UGCAUGU.
In the case of B28, the binding signal is reported as 0.0149 KA relative to UGCAUGU.
B29 was tested, and the binding signal was 0.0162 KA relative to UGCAUGU.
B30 was tested, and the binding signal was 0.015 KA relative to UGCAUGU.
B31 was tested, and the binding signal was 0.0041 KA relative to UGCAUGU.
